Sequences and labels used below:
B1: LINE1-mini (parent)
chain: GGCAGAGCUCAACACAGCGUGGCAAAGUGGCUGUGGCUAGACUGCC

The source gives no read counts; variants with many changes may rest on few reads.

Variants of B1 are the subject of the data set. Nature of the data set: self-cleavage, relative activity (ratio to wild type); higher = more cleavage; in vitro, sequencing; the parent is a self-cleaving ribozyme.
Turning to GGCACCGCUCAACACAUCGUGGCAAAGUGGCUGUGGCUAGACUGCC, the self-cleavage is 0.07. Next, GGCACAGCUCAAUACAGCGUGGCAAAGUGGCGGUGGCUAGACUGCC: 0.18.

In the case of GGCACAGCUCAAUACAGCGUGGUAAAGUGUCUCUGGCUAGACUGCC, the self-cleavage stood at 0.03.

As to GGCACAGCUCAACACAGCGUGGAAAACUGGCUGUGGCUCGACUGCC, the self-cleavage was found to be 0.04.

In the case of GGCACGGCUCAAUACAGCGAGGCAAAGUGGAUGUGGCUAGCCUGCC, the self-cleavage worked out at 0.02. Next, GGCACAGCUCAACACAGUCUGGCAAAGUGGCUGUGGCUUGACUGCC: 0.04; GGCACUGCUCAACACCGCGUGGCAAAGUGGGUGUGGCUAGACUGCC: 0.03. Consider GGCACAGCUCAACACAGCGUGGCAAAGUGGCUGUGGCUAGAAUGUC, for which the self-cleavage turned out to be 0.01.

For the variant GGCACAGAUCAACACAGCGUGGCAAAGUGCCUGUGGCUAUACUGCC, the self-cleavage was 0.09. Consider GGCACAGCUCAACAAAGCGCGGCAAAGUGGCUGUGGGUAGAUUGCC, for which the self-cleavage turned out to be 0.02. Take GGCACAGCUCAACAUAGCGUGGUAAAGCGGCUGUGGCUAGACUGCC: the self-cleavage worked out at 0.02. In the case of GGCACAGCUCAUCACAGAGUGGCAAACUGGCUGUGGCUAGACUGCC it was 0.01; in that of GGCACAGCUCAACACAGUGUGCCAAAGUGGCUGUGCUUAGACUGCC, 0.02.

In the case of GGCACAACUUAACACCGUGUGGCUAAGUGGCUGUGGCUAGACUGCG, the self-cleavage amounted to 0.03. As for GGCAAAGCUCAACACAGCGCGGCAAAGUGGCUUUGGCCUGACUGCC, the self-cleavage was 0.02. In the case of GGCACAGCUCGAAACAGCGUGGCAAAGUGGCUGUGGCUAGACUGCC it was 0.05. Regarding GGCACAGCUAAACACAGGGUGUCAAAGUGGCUGUGGCUAGACUGCC, the self-cleavage amounted to 0.02. On to GGCACUGCUCAACAGAGCGUGGCAACGUGGCUGUGGCUAGACCGCC, for which the self-cleavage was 0. As to GGCACAGCUCCACACAGCGUGGCUAAGUGGCUGUGGCUAGACUGCC, the self-cleavage worked out at 0.01. Turning to GGCACAGCUCAACACAGGGUGGCAAAGUGGCUGUGGCUUGACAGCC, the self-cleavage came to 0.06. Next, GGCACAGCUCACCACAGCGUGGCAAAGUGGCUGUGGCUAAACUGCC: 0.05; GGCACAGCUCAACACAGCGUGGGAAAGUGGCUGUGGCUGGACUGCC: 0.01; GGCACAGCUCAAGACAUCGUUGCAAAGAGGCUGUGGUUAGACAGCC: 0.02. Turning to GGCACGGCGCAACACUGCGUAGCAAAGUGGUUGUGGAUAGACUGCC, the self-cleavage stood at 0.04. In the case of GGCACAGCUCGACACAUCGUGGCAAAGUGGCUGUGGCUAGACUGCC it was 0.03.

With GGCACAGCUCAACACAGGGUGGCAAUGUGGCUGUGGCUAGACUGCC, the self-cleavage was 0.05. In the case of GGCACAGCUCAACAAAGCGUGGCAAAAUGGCUGUGGCUAGACUGCC it was 0.03; in that of GGCACAGUUAAACACAGCGUGGCGAAGUGGCUGUGGCUAGACUGCC, 0.03. Next, GGCACAGCUCAACUCUUCGUGGCAAAGUGAGUGUGGCUAGACUGCC: 0.01; GGCACUGCACAACACAGCGUGGCAAAGUGGCUGUGGCUAGACUGCC: 0.66; GGCACAGCUCAGCACAGCGUGGAAAGGUCUCUGUGGCUAGACUGCC: 0.07. In the case of GGCACGGCUCAGCACAGCGUGGCAAAGUGGCUGUGGAUAGACUUCC it was 0.03; in that of GGCACAGCUCAACCCAGCGUGGCAAAGUGGCUGUCGCUAGACUGCC, 0.06; in that of GGCACAGCUCAGCACAGCGUGAAAAAGUGUCUGUGGCUAGACUGCC, 0.02. As for GGCACAGAUCUACACAGCGUGGCAAAGUGGCUGUGUCUAGACUGCC, the self-cleavage came out at 0. For the variant GGCAAAGCUCAACACAGCGGGGCUAAGUGGCUGUGGCUAGACUGCC, the self-cleavage worked out at 0.02.

GGCACAGUUCAACACAGCGUGGCAAUGUGGCUGUGGCUAGACUGCC: the self-cleavage worked out at 1.53. Next, GGCACAGCUCAACAGAGCGUGAAACAGUGGCUGUGGCUAGAUUGCC: 0.01; GGCACAGCUCAAUACAGCGUGGCGAAGUGGCUGUGGCUGGACUGCC: 0.07. Consider GGCACAGCUCAAUACAGCGUGGCAAAGUGGCUGUGACUAGACUGCC, for which the self-cleavage was 0.05.

With GGCACAGCUCAAGACAGCGUGGAAAAUUGGAUGUGGCUAGACUGUC, the self-cleavage amounted to 0.01. In the case of GGCACAGCUCGACACAGCGUGGCAAAGUAGCCGUGGCUAGAUUGCC it was 0.04; in that of GGCACAGCUCAAUUCAGCGUGGCAAAGUGGCUGAGGCUAGACUGCC, 0.06; in that of GGCACAGCUCAACAGAGCGUGGCAAAGUGGGUAUGGCUAGACUGCC, 0.02. Next, GGCACAGCUCAACACAGUUUGGUAAAGUGUCAGUGGGUAUACUGCC: 0; GGCACAGCUCAACAGAGCGUGUCAAAGUGGCUGUGGCUAGACUGCC: 0.02. As to GGCACAGCUCAUCACAGCGUGGCAAAAUGGCUGUGGCUAGACUGCC, the self-cleavage was determined as 0.03. In the case of GGCACAGCUAAACACAGCGUCGAUAAGUGGCUGUGGCUAGACUGGC it was 0.02; in that of GGCACAGCUCAACACAGCGUGGAAAAGUGGCUGAGCGUAGACUGCC, 0.02; in that of GGCAAAGCUCAACACAGCGUGGCAAAGUGGCAUUGACUAGAUUGCC, 0.05.

As to GGCACAGCUCAACACAGCGUGGCAGUGUGGCUGUUGCUAGACUGCC, the self-cleavage is 0.03. Next, GGCACAGCUUAACACAGGGUGGCAAAAUGGCUGUGGCUAGACUGCC: 0.02; GGCACAGCUCAUGACAGCGUGUCAAAGGGGCUGUGGCUAGACUGCU: 0; GGCAAAGCUCAACACAGCGCGACAAAGUGGCUGUGGCUAAACAGCC: 0. Next, GGCACAGUUCAACACAGCGUGGCAAAGUGGCUGUGGCUAUACGGCC: 0.18.

GGCACAGCUCCACACAGCGUGGCAACGUGGCUGUGGGUAGACUGCC: the self-cleavage is 0.01.

For the variant GGCACAGCUCCAAACAGCGUGGCAAAGUGGCUGUGGCUCGACUGCC, the self-cleavage is 0.06.

For GGCACAGCUCAAUACAGCGUGGCAGAGUGGCUGUGACUAGACUGCC, the self-cleavage worked out at 0.07.

Regarding GGCACAGCUCAACACAGCGUGGCAAAGUGGCUGUGGUUAGACUGAC, the self-cleavage worked out at 0.04. Next, GGCACAGCUCAACACAGCGUGGCAAUGUGGCUGUGGCUAUACUGCC: 0.04; GGCACAGCUAUACACAGCGUGGCAAAGUGGCUGUAGCUAGACUGCC: 0.03.

As for GGCACAGCUCAACACAGCGUGGCAAAGUGGAUGUGGCUAGACUUCC, the self-cleavage came to 0.03. Next, GGCACAGCUUAUCACAGCGUGGCAAAAUGGCUGAGGCUAGACUGCC: 0.01; GGCACAGGUUAAACCAGCGUGGCAAAGUGGCUGUGGCUAGUCUGCC: 0.06; GGCACAGCUACACCCAGCGUGGCAAAGUGGCUGUGGCUAGACUGCU: 0.02. Next, GGCACGGCUCAACACAGCGUGGCAAAGUGGCUGUGGCUAGAAUGGA: 0.6; GGCACCGCAUAACACAACGUGGCGAACUUGCUGUGGCUAGACUGCC: 0.06; GGCACAGCUCAAAACAGCGUGGCAAAGUGGCUGUGGCUAAACUGCC: 0.07. In the case of GGCACAGCUCAACACAGCGUGGCAUAGUGGUUGUGCCUAGACUGCC it was 0.03.

Regarding GGCACAGCUCAACACAGAGUGGCAAAGUGGGUGUGGCUAGAGUGCC, the self-cleavage was determined as 0.05. Next, GGCACCGCUCAACACCGCGUGGCAAAGUGGCUGUGGCUAGCCUGCC: 0.07; GGCACAGUUCAACACAGUGUGGCAAAGUGGGUGUGGCUAGACUGCC: 0.11. In the case of GGCACAGCUAAACACAGCGUGGCAAAGUGGCUCUGGCUAGACUGCC it was 0.02; in that of GGCACAGAUCAACACAGCGUGGCAAAGUGACUGUGGCUAGACUGCC, 0.38; in that of GGCACAGCUCAUUACAGCGUGGCAAAGUGGCUGUGGCUAGACUGCC, 0.06. Next, GGCACAGAUCAACACAGCGUGGCUAAGUGGCUGUGGCUAGACCGCC: 0.22.

In the case of GGCACAGCUCUUCGCAGCGAGGCAAAGUGGCUGUGGCUGGACUGCC, the self-cleavage stood at 0.02. Next, GGCACAGCUCAACACAGUGUGGCAAAGUGGCUGUGCCUAGACUGCC: 0.03. In the case of GGCACGGCUCUACACAGCGUGGCAAAGUGGCUAUGGCUAGACUGCC it was 0.03; in that of GGCACAGAUCAACACGGCGUGGCAAAGUGGCUGUGGCUAUACUGCC, 0.19. Next, GGCACAGCUCAAUUCAGCGUGGCAAAGUGGCUGUGGCCAGACUGCC: 0.02; GGCACAGCUCAACACAGAGUGGCAAAGUGGCUGUGGCUGGACUGUC: 0.03. On to GGCACAACUGAACACAGCGUGGCUAAGUGGCUUUGGCUAGACUGCC, for which the self-cleavage came to 0.02. GGCAAAGCUCAACACAGCGUGGCAAAGUGGCUGUGGCCAGACUGCA: the self-cleavage came to 0.13.

Turning to GGCACAGCUUAACACAGCGAGGCAAAGUGGCUGUGGCUAGACUGCC, the self-cleavage was 0.03. On to GGCACAGCUCUACACAGCGUGGCAAGGUGGCUGCGGCAAGACUGCC, for which the self-cleavage is 0.03. GGCACUGCUAAACACAGCGUGGCAAAGUGGCUGUGGCUAGUCGGCC: the self-cleavage worked out at 0.01. For the variant GGCACAGCUCAACACAGGGUGGGAAAGUGGCUGUGGCUAGACUGCC, the self-cleavage is 0.01. Take GGCACGACUCAACACAGCGUGGCAAAGUGGAUGUCGCUAGACUGCC: the self-cleavage turned out to be 0.09. Next, GGCACAGCUCAACACAGAGAGGCAAAGUGGCUGUGGCUAGACUCCC: 0.03.

Turning to GGCACAGCUAAACACAGCGUGGCAAAGGGGCUGUGGCUAGACUGCC, the self-cleavage is 0.03.

Turning to GGCACAGCUGAAUACAGCGUGGCAAAGUGUCUGUGGCUAGACUGCC, the self-cleavage was found to be 0.03. Next, GGCACAGCUAUACACAUCCUGGCAAACUGGCUGUGGCUAGACUGCC: 0.02. With GGCAAAGCUCAACACAGCGAGGCAAAGUGGCUGUUGCUAGACGGCC, the self-cleavage turned out to be 0.02. GGCACAGCUCAAUAAAGCGUGGCAAGGUGGCUGUGGCUAGACUGCC: the self-cleavage is 0.02. Next, GGCACAGUUCAACACAUCAUGGCUAGGUGGCUGUGGCUAGACUGCC: 0.02; GGCACAGCUCAACACAGCGUGGCCAAAUGGCUGUGGCUAGACUGGU: 0.07. Next, GGCACAGCUAAACACAGCGUGGCAAAGCGCCUGUGGCUAGAUUGCC: 0.01; GGCACAGCUCAACACGGCGUGGCGAAUUGGCUGUGGCUACACUGCC: 0.36. GGCACUGCUCAACACAGCGUUGCAAAGUGGCUGUGGCUAGACUGCU: the self-cleavage was 0.02. As for GGCACAGCUCAACACUGCGUGGAAAAGUGGCUGCGGCUAGACUGCC, the self-cleavage was determined as 0.92.

Regarding GGCACAGCUCAACACAGCGUGGCAACGUGGCUGUGGCUAGACUGGC, the self-cleavage is 0.06. In the case of GGCACAGCUCAACACGGCGUGGCGCAAUGGCUGUGGCUAGACUGCC it was 0.04; in that of GGCACAGGUCAAAACAGCGUGGAAAAGUGGCUGUGGAUAGACUGCC, 0; in that of GGCACAGCUCAAAACAGCGUGGCGAAGUCGCUGUGGCUAGACUGCC, 0.11.

For GGCACAGCUCAACCCAGCGUGGCAAAGUGGCUGUGACUAGACUGCA, the self-cleavage is 0.03. Regarding GGCACAGCUAAACACAGCGUGGCUAAGUGGCUGUGGCUUGACUGCC, the self-cleavage amounted to 0.02. Next, GGCACAGCUCAGCACAGAGAGGCUAAGUGGCUGUGGCUAGACUGCC: 0.01; GGCACAGCUCACCACAGCGUGGCAGAGUGGCUGUGGCUAGACCGCC: 0.01. For GGCACAGUUCAACCCACCGUCGCAGAGUGUCUGUGGCUAGACUGCC, the self-cleavage came out at 0.22. In the case of GGCACAGCUCGACACAGCGUGGCAAAGUGGCUUUGGCUAUACUGCC it was 0.01; in that of GGCACAGCUAAACAAAGCGUAGCAAAGUGGCUGUGGCUAGACUGCC, 0.01.

The values are drawn from the RNAGym collection of RNA variant scans (doi:10.7554/elife.90254).
